Results reported in PMC6919601, “Identification of Plasmodium dipeptidyl aminopeptidase allosteric inhibitors by high throughput screening” (PLoS ONE, 2019).
In all, about 110,000 compounds went through this assay and about 230 (0.21%) showed an effect of 50% or more. The list shows a part of the results.

What follows are compounds tested against DPAP1 (Plasmodium falciparum, UniProt Q8IIJ9) (assay: primary screen, percent inhibition; read by cleavage of a fluorogenic dipeptide substrate; higher = more effect of the substance).
DPAP1, sequence (Q8IIJ9 whole entry, looked up): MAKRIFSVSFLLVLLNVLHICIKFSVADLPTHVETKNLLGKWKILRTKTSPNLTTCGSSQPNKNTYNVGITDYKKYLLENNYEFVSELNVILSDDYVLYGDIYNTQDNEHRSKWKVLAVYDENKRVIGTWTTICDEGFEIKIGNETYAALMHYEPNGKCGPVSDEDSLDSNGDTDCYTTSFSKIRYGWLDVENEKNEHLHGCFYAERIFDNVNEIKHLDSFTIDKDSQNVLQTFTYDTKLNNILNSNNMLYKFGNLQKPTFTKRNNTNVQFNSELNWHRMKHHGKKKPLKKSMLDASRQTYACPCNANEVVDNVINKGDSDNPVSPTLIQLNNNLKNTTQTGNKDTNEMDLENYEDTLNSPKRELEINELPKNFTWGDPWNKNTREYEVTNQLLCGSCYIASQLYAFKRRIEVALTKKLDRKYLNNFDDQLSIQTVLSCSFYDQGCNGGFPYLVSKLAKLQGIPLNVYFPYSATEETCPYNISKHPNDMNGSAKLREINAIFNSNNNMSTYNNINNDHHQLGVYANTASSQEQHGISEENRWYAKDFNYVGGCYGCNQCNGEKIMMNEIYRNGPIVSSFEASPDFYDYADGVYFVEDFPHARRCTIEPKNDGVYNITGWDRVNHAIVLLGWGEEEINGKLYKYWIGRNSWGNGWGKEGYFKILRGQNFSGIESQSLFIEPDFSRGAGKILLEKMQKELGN
Design: species or system P. falciparum D10 trophozoite lysates; single well
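Note: 30 min substrate incubation versus DMSO and 10 µM JCP410 controls.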

SMILES | % Inhibition @ 10 uM
COC(=O)c1cc(S(=O)(=O)Nc2ccc(C)cn2)cn1C | 0.655%
CCOC(=O)N1C2Sc3cccnc3C1Sc1ncccc12 (stereo not drawn) | 0.367%
CC1CCc2c(sc(NC(=O)CCCC(=O)O)c2C(N)=O)C1 (stereo not drawn) | -2.54%
COC(=O)C1=C(C)NC(=O)CC1c1ccc(F)cc1 (stereo not drawn) | 2.22%
CC(C(=O)O)N1C(=O)C2C3c4ccccc4C(c4ccccc43)C2C1=O (stereo not drawn) | 0.76%
COc1cccc(CN2CCSCC2)c1 | 1.63%
O=C(CSc1ccccc1)Nc1cccc(O)c1 | -3.43%
O=C(NC1CCCCC1)c1scc2c1CCCC2 | 1.82%
O=C(Nc1ccc(Cl)cn1)c1cccc(S(=O)(=O)N2CCCCCC2)c1 | 1.26%
CNC(=O)/C(=C\c1ccc(OC)cc1)NC(=O)c1ccccc1Br | 4%
CCn1c(-c2ccccc2Cl)nc2ccccc21 | -0.551%
O=C(NCCO)/C(=C/c1ccccc1)NC(=O)c1cccc(Br)c1 | -0.413%
NS(=O)(=O)c1ccc(NC(=O)CCC2CCCC2)cc1 | -2.94%
COc1cc(S(=O)(=O)N2CCC(C(N)=O)CC2)c(OC)cc1Cl | -4.53%
O=C1CC(C(F)(F)F)=Nc2ccccc2N1 | 0.937%
C=CCc1ccccc1N(CC(=O)O)C(=O)c1ccccc1 | -2.39%
Cc1cccc(CCNC(=O)c2cc3c(C)nc4ccccc4c3o2)c1 | -5.25%
O=C(O)CCCCCn1c(SCc2cc(=O)oc3cc(O)ccc23)nc2ccsc2c1=O | 8.3%
O=C(NC(=O)C(F)(F)F)Nc1ccc(S(=O)(=O)Nc2ccccn2)cc1 | -5.51%
O=C1Nc2c(cnn2Cc2ccccc2)C(c2ccc(Cl)cc2)N1 (stereo not drawn) | -7.02%
CCOC(=O)c1c(NC(=O)C(F)(F)F)sc(C)c1C | -0.294%
Cc1cc(C)cc(NC(=O)C2CCCN2C(=O)C(C)(C)C)c1 (stereo not drawn) | -3.19%
CCN(CC)C(=O)c1c(F)cccc1F | 4.33%
O=S(=O)(NCc1ccc2c(c1)OCO2)c1ccc(-c2ccc(O)nn2)s1 | 4.9%
COCCN1C(=O)c2ccc(C(=O)Nc3ccccc3C(=O)O)cc2C1=O | 1.1%
COCCCNC(=O)c1ccc(CS(=O)(=O)c2ccc(Br)cc2)o1 | 3.77%
Cc1nc2cc(C(=O)N3CCCCC3)ccc2n1-c1ccc(F)cc1F | 2.8%
O=C(c1ccc(CS(=O)c2ccc(Cl)cc2)o1)N1CCOCC1 (stereo not drawn) | -1.28%
COc1ccc(N2C(=O)C3CC=CCC3C2=O)cc1 (stereo not drawn) | -6.37%
CCCCOc1ccc(-c2ccc(C#N)cc2)cc1 | -1.25%
